PubChem BioAssay AID588453 (National Center for Advancing Translational Sciences (NCATS), 2011)
About 4,000 (1%) of roughly 390,000 compounds were called active. The inconclusive results got no clear call from the source; some entries with a clear call stand among them for comparison. The call rests on the fitted dose curve; in most records, active means well fitted inhibition curve with a large enough effect; inconclusive means small, poorly fitted or top-dose-only effect; inactive means no such curve, though single readings can be large or run the other way. Potencies of inconclusive entries are doubtful fits and often do not repeat.

Biological target: Thioredoxin reductase 1, cytoplasmic (Rattus norvegicus) (UniProt O89049)
UniProt O89049, sequence (O89049 whole entry, looked up): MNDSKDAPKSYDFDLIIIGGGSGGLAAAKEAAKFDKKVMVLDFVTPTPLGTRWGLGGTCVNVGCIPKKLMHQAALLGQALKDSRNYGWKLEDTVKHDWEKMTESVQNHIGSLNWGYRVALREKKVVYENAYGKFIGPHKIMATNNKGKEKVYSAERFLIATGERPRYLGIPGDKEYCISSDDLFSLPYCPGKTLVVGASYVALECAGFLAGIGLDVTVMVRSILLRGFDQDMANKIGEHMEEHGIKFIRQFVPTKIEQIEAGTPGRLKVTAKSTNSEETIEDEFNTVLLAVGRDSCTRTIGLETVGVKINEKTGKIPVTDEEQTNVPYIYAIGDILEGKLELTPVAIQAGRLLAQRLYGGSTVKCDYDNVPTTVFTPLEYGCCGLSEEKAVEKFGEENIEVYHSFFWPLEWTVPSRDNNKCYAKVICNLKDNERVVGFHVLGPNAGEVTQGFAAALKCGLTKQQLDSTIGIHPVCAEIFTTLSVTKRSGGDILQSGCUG
Assay: qHTS Assay for Inhibitors of Mammalian Selenoprotein Thioredoxin Reductase 1 (TrxR1): qHTS; further: nearly all actives have a fitted effect of over 65% in size
Conditions: recombinant rTrxR1, NADPH fluorescence consumption, selenite substrate; series mostly up to 114 µM; activity change, negative = inhibition: at the top concentration
Method in brief: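 Rat TrxR1 (90 nM in the dispensed reagent) was pre-reduced with 400 uM NADPH for 5 min at room temperature, then incubated with compound for 15 min. After 400 uM selenite was added, NADPH fluorescence (Ex 340/Em 450 nm) was followed for 8 min.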
On the % scale 0 is the no-effect control and ±100 the full control effect; potency means the concentration at half of the fitted maximal effect; tags describe the fitted curve by direction and shape.

Structure (SMILES)	Potency	activity change, negative = inhibition
CCC1CCCCN1C(=O)c1ccc([N+](=O)[O-])o1 (stereo not drawn)	inconclusive: 35.5 µM [inhibitor, partial curve]	–
COc1cccc(CNCc2ccc(SC)cc2)c1OC	inconclusive: 70.8 µM [inhibitor, partial curve]	–
COc1ccccc1N=Nc1ccc(O)c2ncccc12	inconclusive: 56.2 µM [inhibitor, partial curve, poor fit]	–
COc1ccccc1N1CCN(Cc2nc(-c3cc(OC)c(OC)c(OC)c3)no2)CC1	inconclusive: 22.4 µM [inhibitor, full curve, poor fit]	–
COc1ccccc1-c1nnc(-c2ccc(N3CCOCC3)cc2)o1	–	inactive: -29.9%
O=C(Nc1nnc(SCC(=O)N2CCOCC2)s1)c1ccccc1	inconclusive: 79.4 µM [inhibitor, single point]	–
CSC1=C(C#N)C(=O)NC(c2ccc(Cl)cc2)S1 (stereo not drawn)	inconclusive: 28.2 µM [inhibitor, single point]	–
COc1cccc(N2C(=O)[C@H]3C(C(=O)c4cnccn4)=NN[C@H]3C2=O)c1	–	inactive: -26.8%
Nc1ncc(N=Nc2cc(C(=O)O)ccc2Cl)s1	inconclusive: 31.6 µM [inhibitor, partial curve]	–
Cc1nn(C)c(C(=O)NNC(=S)NCc2ccco2)c1Cl	inconclusive: 79.4 µM [inhibitor, partial curve, poor fit]	–
CC(=O)c1ccc(NC(=O)CCc2ccc(C)o2)cc1	inconclusive: 79.4 µM [inhibitor, partial curve, poor fit]	–
O=C(O)c1c(C(=O)N2N=C3/C(=C/c4ccccc4)CCCC3C2c2ccccc2)cccc1[N+](=O)[O-] (stereo not drawn)	–	inactive: 3.06% [at 57.1 µM]
COc1nccnc1NS(=O)(=O)c1ccc(NC(=S)NC(=O)c2ccc(F)c(F)c2)cc1	inconclusive: 50.1 µM [inhibitor, partial curve]	–
O=C(CN1CC[C@@]2(O)CCCC[C@H]2[C@@H]1c1ccc(F)cc1)NCc1ccco1	inconclusive: 56.2 µM [inhibitor, partial curve]	–
Cn1c(CSCc2ccc(Cl)c(Cl)c2)n[nH]c1=S	–	inactive: -13.1% [at 57.1 µM]
Cc1c(C(=O)Nc2cccc(C#N)c2)sc2nc3n(c(=O)c12)CCCCC3	inconclusive: 44.7 µM [inhibitor, partial curve]	–
CCN(CC)c1ccc(/C=N/NS(=O)(=O)c2cccc([N+](=O)[O-])c2)cc1	inconclusive: 89.1 µM [inhibitor, single point]	–
O=C(OCC(=O)N1CCN(C(=O)c2ccco2)CC1)C1=COCCO1	inconclusive: 31.6 µM [inhibitor, single point]	–
